Screen size: about 320,000 compounds; about 740 (0.23%) were called active. Roughly 2% stayed inconclusive and do not appear here. The entries are a selection whose mix differs from that of the whole data set. Entries without a call were filed so in the source.
Experiment: qHTS Assay for Small Molecule Inhibitors of Mitochondrial Division or Activators of Mitochondrial Fusion;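 also: temperature-sensitive fusion mutants such as fzo1-1 at 37 °C on non-fermentable ethanol glycerol medium; % of control where 0% means no effect; nearly all actives have a fitted effect of over 45% in size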
Details: S. cerevisiae fusion-defective mutant growth rescue, CellTiterGlo 48 h; at 46.1 µM (top of the series; calls follow the shape of the full dose curve)
Description: NIH Chemical Genomics Center [NCGC] NIH Molecular Libraries Probe Production centers Network [MLPCN] MLPCN Grant: MH081279-01 Assay Submitter (PI): Jodi M. Nunnari NCGC Assay Overview: The budding yeast S. cerevisiae is a powerful system to study mitochondrial fusion. Unlike other organisms, yeast cells without functional mitochondrial DNA (mtDNA) can be propagated and studied as long as they maintain a mitochondrial compartment and are provided with a fermentable carbon source. When mitochondrial fusion is blocked in yeast, mitochondrial tubules rapidly fragment and division continues unopposed. Under conditions where fusion is compromised in mammalian cells, nearly identical changes in mitochondrial structure have been observed. Thus, these findings indicate that steady state mitochondrial structure in cells is a characteristic and specific indicator of fusion activity. […] We have developed and optimized a luminescence cell viability assay in 1536 well format for the identification of inhibitors in the yeast mitochondrial fusion-defective assay.
The yeast glycerol stocks where kindly supplied by the laboratory of Dr. Jodi Nunnari, University of California, Davis. […] The CellTiterGlo luminescence reagent, containing luciferase and luciferin, were purchased from Promega, and the reagents were stored according to manufacturer's instructions. […] 7.#Read using bio-luminescence protocol on Viewlux.
`CC1CCCCC1NC(=O)CNC(=S)N1CC2CC(C1)c1cccc(=O)n1C2` (stereo unspecified) showed a growth rescue (activation) of 21.9%.

Source: PubChem BioAssay AID485298 (National Center for Advancing Translational Sciences (NCATS), 2010)
